# Structures can show the parent of a compound that is named as a salt. This is one part of the list. Cut-off read from the data, not from the text of the source: active = -2 or less and inactive = the rest. Most values come without repeats; read them as rough.
# Tested on: hPSC-derived cortical neurons (WA09)
# Experiment: nuclei number (viability) z-score; higher = more surviving cells
# Conditions: 5 µM; treatment: days 7-14 after plating, readout day 21
# 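Note: nuclei counted from DAPI counterstain by automated high-content image analysis, four fields per well at ×20 in 384-well plates, with sequential b-score then z-score normalization.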
row,SMILES,nuclei number (z-score)
1,Nc1cc(C(Cl)=C(Cl)Cl)c(S(N)(=O)=O)cc1S(N)(=O)=O [Clorsulon],inactive: 2.23
2,Cc1ccccc1CN1C2=NCCN2C(=O)C2=C1CCN(Cc1ccccc1)C2 [TIC10 Analogue],inactive: -0.813
3,C1CNCCN1 [Piperazine],inactive: 0.884
4,NCCOCCOCCNC(=O)Cc1ccc(Nc2nc(NCc3ccc(F)cc3)nc(NCC3CCCCC3)n2)cc1 [AP-III-a4 (ENOblock)],active: -5.59
5,CC(C)CC(CC(=O)NO)C(=O)N[C@@H](Cc1ccc2ccccc2c1)C(=O)N[C@@H](C)C(=O)NCCN (some centres not stated),inactive: 0.0895
6,C=CC(=O)Nc1cccc(Oc2nc(Nc3ccc(N4CCN(C)CC4)cc3OC)ncc2Cl)c1,inactive: -0.327
7,O=C(/C=C/c1ccc(O)c(O)c1)OCCc1ccccc1 [Caffeic Acid Phenethyl Ester],inactive: -1.83
8,CC(=O)OCC(CCn1cnc2cnc(N)nc21)COC(C)=O [Famciclovir],inactive: 0.606
9,COc1ccc([C@@H]2CC(=O)c3c(O)cc(O[C@@H]4O[C@H](CO)[C@@H](O)[C@H](O)[C@H]4O[C@@H]4O[C@@H](C)[C@H](O)[C@@H](O)[C@H]4O)cc3O2)cc1O [Neohesperidin],active: -3.96
10,NNc1nncc2ccccc12 [Hydralazine HCl],inactive: -1.47
11,C[C@H](CCC(=O)O)[C@H]1CC[C@H]2[C@@H]3[C@H](O)C[C@@H]4C[C@H](O)CC[C@]4(C)[C@H]3CC[C@]12C [Chenodeoxycholic Acid],inactive: -0.0665
12,CCN1CCN(C(=O)N[C@@H](C(=O)N[C@@H]2C(=O)N3[C@@H]2SC(C)(C)[C@@H]3C(=O)O)c2ccccc2)C(=O)C1=O [Piperacillin Sodium],inactive: 0.272
13,CO[C@@H]1[C@@H](OC(N)=O)[C@@H](O)[C@H](Oc2ccc3c(O)c(NC(=O)c4ccc(O)c(CC=C(C)C)c4)c(=O)oc3c2C)OC1(C)C [Novobiocin Sodium],inactive: 0.544
14,CN(NC(=O)CC(=O)NN(C)C(=S)c1ccccc1)C(=S)c1ccccc1 [Elesclomol (STA-4783)],inactive: -0.251
15,O=C(O[C@H]1CN2CCC1CC2)N1CCc2ccccc2[C@@H]1c1ccccc1 [Solifenacin succinate],inactive: -0.666
16,NC(=O)N/N=C/c1ccc([N+](=O)[O-])o1 [Nitrofural],inactive: 0.19
17,CC(C)C[C@H](NC(=O)[C@H](CCc1ccccc1)NC(=O)CN1CCOCC1)C(=O)N[C@@H](Cc1ccccc1)C(=O)N[C@@H](CC(C)C)C(=O)[C@@]1(C)CO1 [Carfilzomib (PR-171)],active: -7.18
18,O=S(=O)(c1ccccc1)c1cnc2c(N3CCNCC3)cccc2c1,inactive: -0.35
19,CC(=O)OCOC(=O)CN(CC(=O)OCOC(C)=O)c1ccccc1OCCOc1ccccc1N(CC(=O)OCOC(C)=O)CC(=O)OCOC(C)=O,inactive: -0.526
20,CN1CCCCC1CCN1c2ccccc2Sc2ccc([S+](C)[O-])cc21 (configuration not stated) [Mesoridazine Besylate],inactive: -0.482
21,COc1cc(OC)c(C=C2C(=O)Nc3ccccc32)c(OC)c1,active: -3.07
22,CN1CCCC(n2nc(Cc3ccc(Cl)cc3)c3ccccc3c2=O)CC1 (configuration not stated) [Azelastine HCl],inactive: 0.175
23,CN(C)CCC[C@@]1(c2ccc(F)cc2)OCc2cc(C#N)ccc21 [Escitalopram Oxalate],inactive: 1.51

row,SMILES,nuclei number (z-score)
1,CCCC(=O)Nc1ncnc2c1ncn2[C@@H]1O[C@@H]2COP(=O)(O)O[C@H]2[C@H]1OC(=O)CCC [Dibutyryl-cAMP (Bucladesine)],inactive: 0.0233
2,CC1=CC(=O)NS(=O)(=O)O1 [Acesulfame Potassium],inactive: 0.0624
3,COC1=CC(c2cc3ccccc3[nH]2)=N/C1=C\c1[nH]c(C)cc1C [Obatoclax Mesylate (GX15-070)],active: -2.64
4,CC(C)C[C@@H](C=O)NC(=O)[C@H](CC(C)C)NC(=O)[C@H](CC(C)C)NC(=O)OCc1ccccc1,active: -7.88
5,CC(=O)Oc1cccc2c1C(=O)c1c(OC(C)=O)cc(C(=O)O)cc1C2=O [Diacerein],inactive: 0.111
6,CCN(CC)Cc1ccc2cc(COC(=O)Nc3ccc(C(=O)NO)cc3)ccc2c1 [Givinostat (ITF2357)],active: -6.5
7,CC(C)(C#N)c1ccc(N2C(=O)OCc3cnc4ccc(-c5cnc6ccccc6c5)cc4c32)cc1,inactive: 0.548
8,N=C(N)NC(=N)N1CCOCC1 [Moroxydine HCl],inactive: 0.797
9,COc1ccc(NS(=O)(=O)c2ccc(N)cc2)nn1 [Sulfamethoxypyridazine],inactive: 0.404
10,Nc1ccc(C(=O)NCC(=O)O)cc1 [4-Aminohippuric Acid],inactive: 0.49
11,Nc1ccc(C(=O)NCC(=O)O)cc1 [Sodium 4-aminohippurate Hydrate],inactive: -0.348
12,Cn1ncc(Cl)c1-c1cc(C(=O)N[C@H](CN)Cc2ccc(F)c(F)c2)oc1Cl,active: -6.86
13,CCC[C@H](N[C@@H](C)C(=O)N1[C@H](C(=O)O)C[C@@H]2CCCC[C@@H]21)C(=O)OCC [Perindopril Erbumine],inactive: 0.636
14,CCCC(=O)O[C@]1(C(=O)COC(C)=O)CC[C@H]2[C@@H]3C[C@H](F)C4=CC(=O)C=C[C@]4(C)[C@@]3(F)[C@@H](O)C[C@@]21C [Difluprednate],inactive: 0.662
15,"CC1(C)OC(=O)NC1=O [5,5-Dimethyloxazolidine-2,4-dione]",inactive: 5.12
16,CN(C)CCc1c[nH]c2ccc(Cn3cncn3)cc12 [Rizatriptan Benzoate],inactive: -0.341
17,Nc1ccc(S(=O)(=O)c2ccc(N)cc2)cc1 [Dapson],inactive: 0.415
18,OC[C@H]1O[C@@H](Oc2ccc(O)cc2)[C@H](O)[C@@H](O)[C@@H]1O [Arbutin],inactive: 0.171
19,O=C(c1ccc(C(=O)N2CCC(N3CCCC3)CC2)c(Nc2ccccc2)c1)N1CCC(N2CCCC2)CC1,inactive: 0.418
20,COc1ccc(-c2oc3c(CC=C(C)C)c(O[C@@H]4O[C@H](CO)[C@@H](O)[C@H](O)[C@H]4O)cc(O)c3c(=O)c2O[C@@H]2O[C@@H](C)[C@H](O)[C@@H](O)[C@H]2O)cc1 [Icariin],inactive: 5.53
21,C[C@H]1[C@@H](O)O[C@@H]2O[C@@]3(C)CC[C@H]4[C@H](C)CC[C@@H]1[C@@]24OO3 [Dihydroartemisinin (DHA)],inactive: 3.12
22,CCn1cc(C(=O)O)c(=O)c2ccc(C)nc21 [Nalidixic acid],inactive: -0.661
23,COc1ccc2cc(CCC(C)=O)ccc2c1 [Nabumetone],inactive: 0.398

row,SMILES,nuclei number (z-score)
1,Oc1c(I)cc(I)c2cccnc12 [Diiodohydroxyquinoline],inactive: 0.0215
2,O=C(CCCN1CC=C(n2c(=O)[nH]c3ccccc32)CC1)c1ccc(F)cc1 [Droperidol],inactive: 0.348
3,CCO[C@@H]1OC(=O)C[C@@H]1NC(=O)[C@@H]1CCCN1C(=O)[C@@H](NC(=O)c1ccc(N)c(Cl)c1)C(C)(C)C,inactive: 9.73
4,Cc1ccc(NC(=O)c2ccc(CN3CCN(C)CC3)cc2)cc1Nc1nc(-c2cccnc2)cs1 [Masitinib (AB1010)],inactive: -0.145
5,COc1nc(C)nc(Cl)c1NC1=NCCN1 [Moxonidine],inactive: -0.0368
6,CCCC[C@@H](C=O)NC(=O)[C@H](CC(C)C)NC(=O)OCc1ccccc1 [Calpeptin],inactive: 2.59
7,O=C(Nc1cc(C(F)(F)F)ccc1N1CCCCC1)c1ccncc1,inactive: -1.02
8,COc1cc2nc(N3CCN(C(=O)c4ccco4)CC3)nc(N)c2cc1OC [Prazosin HCl],inactive: 0.342
9,NCCS(=O)(=O)O [Taurine],inactive: 0.205
10,Cc1cc(Cn2cnc3c2CC(C(=O)O)N(C(=O)C(c2ccccc2)c2ccccc2)C3)ccc1N(C)C (configuration not stated),inactive: 3.53
11,O=c1c(O)c(-c2cc(O)c(O)c(O)c2)oc2cc(O)cc(O)c12 [Myricetin],inactive: -0.682
12,Cc1ccc(S(=O)(=O)NC(=O)NN2CC3CCCC3C2)cc1 (configuration not stated) [Gliclazide],inactive: 1.1
13,O=C(O)CCNc1cc(N2CCc3ccccc3CC2)nc(-c2ccccn2)n1,inactive: -0.634
14,Cc1cc([N+](=O)[O-])ccc1NS(=O)(=O)c1cc(Cl)ccc1Cl,inactive: 0.286
15,COc1ccc(COc2ccc(Cc3cnc(N)nc3N)cc2OC)cc1,inactive: 0.788
16,O=C([O-])c1ccccc1O.[Na+] [Sodium salicylate],inactive: 2.01
17,COc1ccc2[nH]cc(CCNC(C)=O)c2c1 [Melatonin],inactive: 0.0121
18,NC[C@H]1O[C@H](O[C@H]2[C@H](O[C@@H]3O[C@H](CO)[C@@H](O)[C@H]3O)[C@@H](O)[C@H](N)C[C@@H]2N)[C@H](N)[C@@H](O)[C@@H]1O [Ribostamycin Sulfate],inactive: -0.418
19,Cc1ccc(C(=O)c2cc(O)c(O)c([N+](=O)[O-])c2)cc1 [Tolcapone],inactive: 0.54
20,O=C(N/N=C/c1ccc(O)c(O)c1)c1cc2ccccc2cc1O [Dynasore],inactive: 0.874
21,C=CC[C@@H]1/C=C(\C)C[C@H](C)C[C@H](OC)[C@H]2O[C@@](O)(C(=O)C(=O)N3CCCC[C@H]3C(=O)O[C@H](/C(C)=C/[C@@H]3CC[C@@H](O)[C@H](OC)C3)[C@H](C)[C@@H](O)CC1=O)[C@H](C)C[C@@H]2OC [Tacrolimus (FK506)],inactive: -0.266

# — the supplement of paper PMC11348887
